Experimental data published in US11369598B2, “Treatment of T-cell mediated diseases” (Ampio Pharmaceuticals, Inc., priority 2003, dated 2022).

Tested on: H4 #9.25 cells
Settings: day 7-10 after stimulation with anti-CD3 OKT3 antibody

## Asp-Ala diketopiperazine [DA-DKP]
  TNFα secretion from H4 #9.25 cells (FIG. 5): inhibited
